Test results taken from article PMC6919601, “Identification of Plasmodium dipeptidyl aminopeptidase allosteric inhibitors by high throughput screening” (PLoS ONE, 2019).
Where “and” joins values, the source holds several entries; their conditions need not be identical. Equal values may be shown once. The whole screen tested about 110,000 compounds, of which about 230 (0.21%) showed an effect of 50% or more. This is one part of the list.

What follows are compounds tested against DPAP1 (Plasmodium falciparum, UniProt Q8IIJ9) (assay: primary screen, percent inhibition; read by cleavage of a fluorogenic dipeptide substrate; higher = more effect of the substance).
Sequence of DPAP1 (Q8IIJ9 whole entry, looked up): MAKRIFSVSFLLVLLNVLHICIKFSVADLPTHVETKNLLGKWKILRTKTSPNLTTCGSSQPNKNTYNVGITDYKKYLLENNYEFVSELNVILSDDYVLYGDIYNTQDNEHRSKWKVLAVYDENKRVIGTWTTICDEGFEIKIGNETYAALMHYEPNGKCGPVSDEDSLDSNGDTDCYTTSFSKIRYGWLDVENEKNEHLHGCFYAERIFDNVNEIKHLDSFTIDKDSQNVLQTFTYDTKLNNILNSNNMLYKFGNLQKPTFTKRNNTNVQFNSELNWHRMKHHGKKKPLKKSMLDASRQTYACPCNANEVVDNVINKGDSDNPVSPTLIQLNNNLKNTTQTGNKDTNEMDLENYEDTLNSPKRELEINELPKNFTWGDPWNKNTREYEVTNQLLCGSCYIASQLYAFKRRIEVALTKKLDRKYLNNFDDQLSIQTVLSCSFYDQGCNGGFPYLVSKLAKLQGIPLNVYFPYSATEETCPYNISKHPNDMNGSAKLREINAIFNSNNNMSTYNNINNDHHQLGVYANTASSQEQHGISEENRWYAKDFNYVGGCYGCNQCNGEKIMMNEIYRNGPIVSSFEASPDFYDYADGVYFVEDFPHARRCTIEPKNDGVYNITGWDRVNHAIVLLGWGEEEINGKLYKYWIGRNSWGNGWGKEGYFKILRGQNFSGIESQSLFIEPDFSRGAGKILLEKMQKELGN
Design: species or system P. falciparum D10 trophozoite lysates; single well
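Note: 30 min substrate incubation versus DMSO and 10 µM JCP410 controls.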

SMILES | % Inhibition @ 10 uM
CC(C)CC(NC(=O)c1ccc(-c2csc(N(C)C)n2)cc1)C(=O)NCC#N (stereo not shown) | -3.97%
COCCCNC(=O)CCc1c(C)nc2c(c(C)nn2C(C)(C)C)c1C | -4.24%
COc1ccc(OCC(=O)Nc2ccc(C)c(Cl)c2)cc1 | -8.33%
CC1(c2ccccc2)OC(=O)C(C#N)C12CCCCC2 (stereo not shown) | 2.58%
CC(O)CNC(=O)COc1ccccc1 (stereo not shown) | 2.25%
N#Cc1c(Nc2ccc(F)cc2)sc(C(=O)c2ccccc2)c1N | -0.661%
CC(=O)c1cccc(-c2ccc(/C=C3/C(=O)N(C)C(=O)C(C#N)=C3C)o2)c1 | -1.25%
CC1=CC(C)(C)N(C(=O)Cc2ccccc2)c2ccccc21 | 4.6%
O=c1c(Cl)c(NCCc2ccccc2)cnn1-c1nc2ccccc2o1 | -1.59%
COc1ccc(C2C(C(C)=O)=C(O)C(=O)N2c2ccc(Br)cc2)cc1 (stereo not shown) | -1.98%
COC(=O)c1cc2ccsc2[nH]1 | 1.72%
Cc1cc(O)c(C2=NCCSC(c3ccccc3[N+](=O)[O-])C2)c(=O)o1 (stereo not shown) | -8.3%
COc1ccccc1N1CCN(Cc2cccc(C)c2)CC1 | -0.127%
CCOC(=O)N1CCC(NC(=O)Cn2cccc2C(=O)c2ccccc2)CC1 | 4.33%
Cc1cc(C)c2oc(C(=O)Nc3nc4ccc(F)cc4s3)cc(=O)c2c1 | 1.9%
COc1ccccc1N1C(=O)C2CCC(C)CC2C1=O (stereo not shown) | -14.3%
COc1ccc(NC(=O)c2ccc(Cc3ccc(C)cc3)o2)cc1 | -0.641%
COc1cc(C2C3=C(O)CCCC3=NC(C)=C2C(=O)Nc2cc(C)ccn2)cc(OC)c1OC (stereo not shown) | 2.36%
CCC(C)NC(=O)CCNC(=O)Cn1ccc2ccccc2c1=O (stereo not shown) | 5.4%
CCOc1ccccc1-n1c(SCC(=O)c2ccc(Cl)cc2)nc2nncc-2c1O | -5.03%
Cc1sc(NC(=O)c2ccccc2)c(C(=O)NC(C)C)c1C | -1.29%
O=C(/C=C(\O)c1ccccc1)C(F)(F)C(F)(F)c1cc(-c2ccccc2)[nH]n1 | 0.937%
Cc1cccn2c(=O)c3cc(C(N)=S)c(=N)n(CCN4CCOCC4)c3nc12 | 4.78%
O=C1NC2(CCCCCC2)N=C1c1ccc(F)cc1 | -3.87%
CCOC(=O)c1nnn(-c2cccc(C)c2C)c1C(=O)OCC | -7.21%

SMILES | % Inhibition @ 10 uM
CC1(C)Cc2c(sc(NC(=O)c3ccco3)c2C#N)CO1 | 0.983%
O=C(CCNC(=O)Cn1ccc2ccccc2c1=O)NCc1ccc(F)cc1Cl | 4.33%
COc1ccc(CNCc2c(C(=O)O)[nH]c3cc(C)ccc23)cc1 | -6.3%
Cc1cccc(N(CC(=O)O)S(=O)(=O)c2ccc(Cl)cc2)c1 | 7.18%
CCCCC(C(N)=O)N1C(=O)C2C3C=CC(C3)C2C1=O (stereo not shown) | 2.08%
CCOc1ccc(CNC2=NS(=O)(=O)C(c3ccc(C)cc3)=C2C)cc1 | 0.623%
COc1ccc(NC2=C(Cl)C(=O)N(c3ccc(OC)cc3)C2=O)cc1 | 0.385%
C=CCn1c(SCC(=O)NCc2ccco2)nnc1-c1ccc2[nH]c(C)c(C)c2c1 | -3.21%
Cc1cc(Cl)ccc1OCC(=O)N1CCN(C/C=C/c2ccccc2)CC1 | -6.08%
O=S(=O)(/C=C/c1ccccc1)N1C=Cc2ccccc2C1c1c[nH]c2ccccc12 (stereo not shown) | 4.35%
CC(C)C[C@H](NC(=O)c1cccc2cccnc12)C(=O)NCC#N | -8.36%
O=C(Nc1nccs1)C(c1ccccc1)N1Cc2ccccc2C1=O (stereo not shown) | 1.66%
COCCNC(=O)/C(C#N)=C/c1c(Oc2ccccc2Cl)nc2c(C)cccn2c1=O | -3.46%
O=C(NCC1CCCO1)c1ccc(CNS(=O)(=O)c2cccc(Cl)c2)cc1 (stereo not shown) | -1.61%
CCOC(=O)C1=C(CN2CCOCC2)NC(=O)NC1c1ccc2c(c1)OCO2 (stereo not shown) | 0.9%
Cc1nc2ccn(Cc3cccs3)c(=O)c2cc1C(=O)N1CCOCC1 | 3.16%
Cc1cc(C)nc(NS(=O)(=O)c2ccc(NC(=O)c3ccc([N+](=O)[O-])cc3)cc2)n1 | 4.42%
COc1ccccc1N1CCN(C(=O)c2cc(Br)ccc2Cl)CC1 | 20.6%
O=C(CC1c2ccccc2Oc2ccccc21)NCCOc1ccccc1Cl | 28.3%
c1ccc(-c2[nH]c3ccccc3c2-c2nc3ccccc3[nH]2)cc1 | 5.66%
O=C(NCCCN1CCOCC1)c1ccc2nc3[nH]c4ccccc4c3nc2c1 | -5.92%
COc1ccc(C(=O)N2CCN(CCN3C(=O)c4ccccc4C3=O)CC2)cc1OC | -1.24%
CC1=C(C(=O)NC2CCN(Cc3ccccc3)CC2)C2(CCCCC2)OC1=O | 1.55%
OCCNCc1ccc(OCc2ccccc2)cc1 | 1.83%
Cc1ccc(-c2noc(CN(C(=O)N3CCOCC3)C(C)C)n2)cc1 | 0.486%

SMILES | % Inhibition @ 10 uM
Cc1ccc(CNC(=O)C2CCC(=O)N2C(C)C)cc1 (stereo not shown) | 6.74%
CCOc1ccc(/C=C/c2nc(-c3ccc(Cl)cc3)no2)cc1OCC | -0.0735%
CCc1ccc2ncc(C(=O)c3ccccc3)c(N3CCCC3)c2c1 | -6.42%
O=c1ncn(-c2ccccc2F)c2ncccc12 | -10.2%
Cc1ccc(NC(=O)CN(c2cc(C)ccc2C)S(C)(=O)=O)c(C)c1 | 0.00477%
N#Cc1c(N)sc2c1CCCCCC2 | 25.3%
Cc1ccc2onc(CNC(=O)N3CCC(N4CCCCC4)CC3)c2c1 | 1.93%
CCOc1ccc(-n2nnc(-c3nc(-c4ccc(Cl)cc4)no3)c2N)cc1 | -6.87%
CCOC(=O)C1=C(c2ccccc2)NC(SCC(=O)NC2CCCCC2)=C(C#N)C1c1ccco1 (stereo not shown) | -7.77%
CCCCCCCc1ccc(-c2nc(-c3ccc(Br)cc3)no2)cc1 | 4.12%
C=CCNC(=S)N1CCN(CC/N=C2/C=C(O)CC(C)(C)C2)CC1 | -3.09%
O=C(c1ccco1)N1CCN(S(=O)(=O)c2ccc(-c3ccc(O)nn3)s2)CC1 | 0.92%
O=C(NCCN1CCOCC1)c1cc(-c2cccc(Br)c2)nc2ccccc12 | 2.43%
CCNC(=O)/C(=C\c1ccccc1)NC(=O)c1ccc(Br)o1 | 2.84%
O=C(CSc1nc[nH]n1)NCc1ccccc1Cl | 4.19%
COc1ccc(-c2nc(NC(=O)CSc3ccccc3)sc2CCC(=O)O)cc1 | -0.884%
CCOc1cc(/C=C2/SC(N)=NC2=O)ccc1OCc1ccc(F)cc1 | -0.425%
CCOc1ccc(C2C=C(c3ccc(CC)cc3)Nc3ncnn32)cc1OC (stereo not shown) | 6.17%
CCC(=O)Nc1cccc(-c2nc3ncccc3o2)c1 | -0.48%
CCOc1ccccc1C1C(C#N)=C(N)Oc2cc(O)c(Cl)cc21 (stereo not shown) | -6.18%
CC(C)Oc1ccc(CN2CCN(CC3COc4ccccc4O3)CC2)cc1 (stereo not shown) | -0.902%
Cc1cc2c(n1-c1ccc(C(=O)NCCN(C)C)cc1)CCCC2 | -0.0871%
Cc1ccc(S(=O)(=O)NCC(=O)O)c2nsnc12 | 4.8%
COc1ccc(-c2ccc(/C=C3/SC(N4CCN(C(C)=O)CC4)=NC3=O)o2)cc1 | 0.487%
Cc1ccccc1CN(c1ccc(C(=O)Nc2ccccc2C(=O)N2CCCC2)cc1)S(C)(=O)=O | -1.51%

SMILES | % Inhibition @ 10 uM
Cc1nn(Cc2ccccc2)c(C)c1NC(=O)CC12CC3CC(CC(C3)C1)C2 | -9.77%
COc1ccc(C2C3=C(O)CCCC3=NC(C)=C2C(=O)Nc2ccc(Br)cn2)c(OC)c1 (stereo not shown) | -3.9%
Cc1ccc(S(=O)(=O)NC(C)C(=O)NCc2ccc(Cl)cc2)cc1 (stereo not shown) | -7.08%
CCCCOC(=O)Nc1sc(-c2ccccc2)cc1C(=O)OCC | 2.38%
Cn1nc(C(=O)NCC2CCCO2)c2c1-c1ccccc1SC2 (stereo not shown) | 25.5%
COc1ccccc1CNc1ccc(CNc2nc[nH]n2)cc1 | -5.06%
COC(=O)c1cccc(-c2ccc(C=C3C(=O)OC(c4ccccc4)OC3=O)o2)c1 (stereo not shown) | 1.84%
CCCCc1ccc(/C=C(\C#N)C(N)=S)s1 | 5.43%
Cc1cc(C)cc(Oc2nc3c(C)cccn3c(=O)c2/C=C(\C#N)C(=O)NCCc2ccccc2)c1 | 0.315%
CCN(c1ccccc1)S(=O)(=O)c1ccc(NC(=O)COc2ccc(Cl)cc2)cc1 | -0.795%
CCOc1ccc(C(=O)C2=C(O)C(=O)N(CCN3CCOCC3)C2c2ccccc2F)cc1C (stereo not shown) | 1.52%
O=C1N/C(=C\c2cccn2-c2ccccc2)C(=O)N1Cc1ccc(Cl)cc1 | -3.06%
CC1(C)Cc2ccccc2-c2nnc(-c3ccccc3)n21 | -1.07% and -1.99%
CCOc1ccccc1Oc1coc2cc(O)ccc2c1=O | 0.628%
O=C(NCCc1nc2ccccc2n1CCOc1ccc(Cl)cc1)c1ccco1 | -8.48%
CCOC(=O)c1cc2c(=O)n3ccccc3nc2n(Cc2ccco2)/c1=N/C(=O)/C=C/c1ccccc1 | 1.26%
CC(C)Cn1c(S)nnc1-c1nn(C)cc1Cl | 0.64%
CCCn1c(=N)c(C(=O)OCC)cc2c(=O)n3cccc(C)c3nc21 | -1.47%
Cc1ccc2c(=O)c(C(=O)c3ccc(Cl)cc3)cn(CC(=O)NC3CCCC3)c2n1 | 2.01%
CC(O)c1cccc(NC(=O)c2cnn3c2NC(c2cccs2)CC3C(F)(F)F)c1 (stereo not shown) | -0.725%
C#CC(C)(CC)NC(=O)c1ccc(Cl)cc1 (stereo not shown) | -6.28%
Cc1sc2c(c1C)c(=O)n(CCc1ccccc1)c(=O)n2Cc1ccccc1C#N | -7.27%
